# Screen size: about 310,000 compounds; about 2,200 (0.71%) showed an effect of 50% or more. Effects have a minus sign here. This is one part of the list.
# Molecular target: human ether-à-go-go-related gene (hERG) potassium channel (human, UniProt Q12809)
# Experiment: primary screen, population patch clamp on CHO cells stably expressing hERG
# Chain of human ether-à-go-go-related gene (hERG) potassium channel (Q12809 whole entry, looked up): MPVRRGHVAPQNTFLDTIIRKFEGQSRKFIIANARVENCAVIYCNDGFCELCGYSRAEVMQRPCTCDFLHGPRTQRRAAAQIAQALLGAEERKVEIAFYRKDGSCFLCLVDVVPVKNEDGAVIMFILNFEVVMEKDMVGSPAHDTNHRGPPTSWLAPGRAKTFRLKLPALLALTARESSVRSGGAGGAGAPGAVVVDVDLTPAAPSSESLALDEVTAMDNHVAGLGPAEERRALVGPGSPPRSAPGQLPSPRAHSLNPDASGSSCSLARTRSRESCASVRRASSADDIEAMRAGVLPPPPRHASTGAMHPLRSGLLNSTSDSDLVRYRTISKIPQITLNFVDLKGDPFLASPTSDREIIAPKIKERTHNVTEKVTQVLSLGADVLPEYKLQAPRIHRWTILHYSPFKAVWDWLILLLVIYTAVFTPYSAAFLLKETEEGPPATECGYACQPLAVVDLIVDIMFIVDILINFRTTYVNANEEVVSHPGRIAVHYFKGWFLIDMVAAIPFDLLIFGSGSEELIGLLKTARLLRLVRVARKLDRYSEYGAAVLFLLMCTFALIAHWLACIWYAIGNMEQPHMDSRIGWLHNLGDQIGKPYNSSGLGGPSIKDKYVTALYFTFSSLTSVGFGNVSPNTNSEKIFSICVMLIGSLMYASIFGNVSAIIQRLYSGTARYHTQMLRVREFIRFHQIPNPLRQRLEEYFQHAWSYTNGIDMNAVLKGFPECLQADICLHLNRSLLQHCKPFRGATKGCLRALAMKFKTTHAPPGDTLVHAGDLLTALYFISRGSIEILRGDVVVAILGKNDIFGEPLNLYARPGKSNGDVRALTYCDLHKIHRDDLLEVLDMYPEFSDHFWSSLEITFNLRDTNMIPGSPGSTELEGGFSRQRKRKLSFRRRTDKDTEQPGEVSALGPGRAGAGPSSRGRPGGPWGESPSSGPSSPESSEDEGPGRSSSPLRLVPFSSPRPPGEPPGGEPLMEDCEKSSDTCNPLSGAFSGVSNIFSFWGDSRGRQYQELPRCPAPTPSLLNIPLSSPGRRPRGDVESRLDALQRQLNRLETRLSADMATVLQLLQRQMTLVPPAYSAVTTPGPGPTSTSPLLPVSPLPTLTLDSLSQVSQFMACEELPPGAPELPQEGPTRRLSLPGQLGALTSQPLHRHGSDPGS
row,SMILES,"hERG current change (%, negative = inhibition) at 1uM [%]"
1,CCn1ccnc1CN(C)Cc1cn(-c2ccccc2)nc1-c1ccc(OC)cc1F,0.111
2,CC(C)=C1C2CCC1C1C(=O)N(c3nc(-c4ccccc4)c(C)s3)C(=O)C21 (stereo not drawn),5.76
3,COCCNS(=O)(=O)c1ccc2c3c(cccc13)C(=O)N2C,13.8
4,COc1ccccc1N1CCN(C(=O)CN2C(=O)c3cccc4cccc(c34)C2=O)CC1,8.79
5,CN(CC(=O)Nc1ccc(Cl)cc1)C(=O)c1cccc(S(=O)(=O)NCc2ccccc2)c1,12.7
6,CCCOc1ccc(-c2csc(NC(=O)CN3C(=O)CCC3=O)n2)cc1,10.9
7,N=C1S/C(=C\c2ccco2)C(=O)N1c1ccc2c(c1)OCO2,13
8,CN(C)S(=O)(=O)Oc1cccc(C(=O)Nc2ccc(Cl)cc2)c1,10.1
9,c1ccc2nc(SCc3cn4ccccc4n3)cnc2c1,-4.84
10,O=C(c1ccc(CNS(=O)(=O)c2ccc(Br)cc2)cc1)N1CCCC1,6.66
11,O=C1Nc2cc(C(=O)N3CCN(Cc4ccccc4)CC3)ccc2SC1N1CCOCC1 (stereo not drawn),1.53
12,C=CC(=O)NCCCc1cc(C(C)(C)C)c(O)c(C(C)(C)C)c1,10.4
13,CN(C)C(=O)c1cc(F)ccc1Sc1cc(Cl)ccc1Cl,5.79
14,Cc1ccc(SCCc2ccc(C)nc2)cc1,-1.69
15,CCOC(=O)C1CCN(CC(=O)c2c(C)[nH]c3ccccc23)CC1,-19.1
16,COc1ccc(CCNC(=O)Cn2nnc(C(=O)Nc3ccc(Br)cc3)c2N)cc1OC,8.59
17,CCCCCCCCNC(=O)CCNC(=O)c1ccc(C(C)(C)C)cc1,8.67
18,O=C1COCC(=O)N1CCc1c[nH]c2ccccc12,17
19,O=C(CP(=O)(O)CC(=O)c1ccccc1)c1ccccc1,11.2
20,O=C(c1ccc(Cl)nc1)N1CCN(C/C=C/c2ccccc2)CC1,-7.89
21,O=C(Nc1cccc(Cl)c1)C1CCCN(c2cnccn2)C1 (stereo not drawn),19.7
22,O=C(CCc1nnc(C2CCCCC2)o1)N1CCN(c2ccccc2F)CC1,-3.35
23,COc1ccc(NC(=O)c2ccc(C#N)cc2)cc1NS(=O)(=O)c1ccc(F)cc1,8.58

row,SMILES,"hERG current change (%, negative = inhibition) at 1uM [%]"
1,Oc1cccc(C2c3[nH]c4ccccc4c3CCN2Cc2ccc3c(c2)CCO3)c1 (stereo not drawn),22.2
2,NC(=O)c1nsc(C(=O)N(Cc2ccco2)C(C(=O)NCc2ccc(F)cc2)c2ccc(O)cc2)c1N (stereo not drawn),1.02
3,CCOc1ccccc1Nc1ncnc2ccc(Br)cc12,19.1
4,Cc1ccc(NC(=O)CN(C)C(=O)c2ccc(Cl)nc2)cc1,2.13
5,CCOC(=O)C1CCN(C(=S)NC2CCCC2)CC1,13.2
6,COc1cc(OC)cc(C(=O)OCC(=O)N(C)c2ccccc2)c1,9.32
7,C/C(CC(=O)Nc1ccccn1)=N\NC(=O)C(=O)Nc1cccc(Cl)c1C,7.45
8,CCOc1ccc(S(=O)(=O)Nc2cccc(C(=O)N3CCN(c4ccc(OC)cc4)CC3)c2)cc1,0.849
9,CN(Cc1ccco1)C(=O)C1CCCN(c2ncnc3c2nc2n3CCCCC2)C1 (stereo not drawn),13
10,CCN(CC)S(=O)(=O)c1ccc(C(=O)NCCN2C(=O)S/C(=C\c3cccnc3)C2=O)cc1,4.05
11,Cc1ccc(NC(=O)c2cccs2)cc1S(=O)(=O)N(C)C,11.7
12,CCN(Cc1ccncc1)C(=O)CCc1nnc(CCc2ccc(OC)cc2)o1,6.96
13,CN(c1ccc(C(=O)NCc2ccccn2)cc1)S(C)(=O)=O,2.05
14,N#Cc1c(NCc2ccccc2)ccnc1NCc1cccnc1,2.43
15,O=C(O)CC[C@@H](C(=O)O)N1C(=O)c2ccccc2C1=O,3.58
16,O=C(Nc1ccc(OC(F)(F)F)cc1)c1ccc(S(=O)(=O)N2CCOCC2)o1,-5.59
17,Cc1ccccc1/C=C1\SC(=S)N(/N=C/c2cc([N+](=O)[O-])ccc2O)C1=O,17.2
18,COc1cc(C(=O)Nc2ccc3c(c2)N(C(=O)CCN(C)C)c2ccccc2CC3)cc(OC)c1OC.Cl,11.7
19,O=C(O)c1cc(NCc2c(F)cccc2Cl)ccc1N1CCOCC1,-15.3
20,FC(F)(F)c1cccc(-c2noc(CN3CCOCC3)n2)c1,1.92
21,CC1CCCN(S(=O)(=O)c2ccc3oc(=O)ccc3c2)C1 (stereo not drawn),7.95
22,CC(C)c1ccc2c(c1)[C@H]1OCC[C@H]1[C@@H](c1cccs1)N2,4.11

# Reference: PMC4336329 (PLoS ONE, 2015)
